# Laboratory results published in PMC4336329 (PLoS ONE, 2015).
# Hit rate of the full screen: of about 310,000 compounds, about 2,200 (0.71%) showed an effect of 50% or more. The effect is printed as a negative number. The list shows a part of the results.
# Target: human ether-à-go-go-related gene (hERG) potassium channel (human, UniProt Q12809)
# Test: primary screen, population patch clamp on CHO cells stably expressing hERG
# Sequence of human ether-à-go-go-related gene (hERG) potassium channel (Q12809 whole entry, looked up): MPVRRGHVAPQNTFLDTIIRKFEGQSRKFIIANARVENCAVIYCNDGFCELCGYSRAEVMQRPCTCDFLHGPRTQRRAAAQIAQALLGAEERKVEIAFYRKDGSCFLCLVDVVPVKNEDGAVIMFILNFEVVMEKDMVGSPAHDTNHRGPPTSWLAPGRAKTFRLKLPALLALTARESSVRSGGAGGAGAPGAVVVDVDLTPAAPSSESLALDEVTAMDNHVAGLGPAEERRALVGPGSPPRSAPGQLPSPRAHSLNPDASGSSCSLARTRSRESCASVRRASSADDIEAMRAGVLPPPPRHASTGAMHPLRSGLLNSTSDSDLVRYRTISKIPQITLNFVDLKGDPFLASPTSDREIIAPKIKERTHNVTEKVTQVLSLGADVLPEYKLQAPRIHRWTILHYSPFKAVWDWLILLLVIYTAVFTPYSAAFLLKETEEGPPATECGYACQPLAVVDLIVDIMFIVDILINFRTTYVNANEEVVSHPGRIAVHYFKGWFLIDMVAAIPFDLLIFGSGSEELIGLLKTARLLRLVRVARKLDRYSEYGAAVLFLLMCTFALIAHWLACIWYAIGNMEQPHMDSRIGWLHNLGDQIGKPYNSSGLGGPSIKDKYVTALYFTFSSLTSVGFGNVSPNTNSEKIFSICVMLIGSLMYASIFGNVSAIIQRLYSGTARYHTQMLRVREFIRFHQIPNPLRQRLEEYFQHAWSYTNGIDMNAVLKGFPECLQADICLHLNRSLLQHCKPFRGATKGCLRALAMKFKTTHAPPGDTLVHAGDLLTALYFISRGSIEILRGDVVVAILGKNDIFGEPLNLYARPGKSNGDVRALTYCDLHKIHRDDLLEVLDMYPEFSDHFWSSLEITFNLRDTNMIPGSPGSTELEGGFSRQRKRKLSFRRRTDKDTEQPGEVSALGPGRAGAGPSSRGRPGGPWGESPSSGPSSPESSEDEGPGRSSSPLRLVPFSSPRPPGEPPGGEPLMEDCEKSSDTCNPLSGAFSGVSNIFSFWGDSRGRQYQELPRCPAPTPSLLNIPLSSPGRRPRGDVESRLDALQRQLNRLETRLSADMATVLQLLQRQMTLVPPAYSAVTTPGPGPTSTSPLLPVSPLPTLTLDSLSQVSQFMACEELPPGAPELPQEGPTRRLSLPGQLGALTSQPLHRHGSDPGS
row,Compound,"hERG current change (%, negative = inhibition) at 1uM"
1,COCCNC(=O)CCCCCNS(=O)(=O)c1ccc(C)cc1,5.2%
2,Cc1cc(C)cc(OCC(=O)Nc2ccc(N3CCN(S(C)(=O)=O)CC3)cc2)c1,7%
3,Cc1ccnc(NC(=O)COc2c(C)cc(C)cc2[N+](=O)[O-])c1,14.1%
4,COc1ccc(C2c3[nH]c4ccccc4c3C[C@H]3C(=O)N(CC(C)C)CC(=O)N23)c(OC)c1 (stereo partly shown),7.71%
5,Cc1ccc(C(=O)Nn2cnc3scc(-c4cccs4)c3c2=O)c(O)c1,11.3%
6,Cc1ccc(C(=O)CN2C(=O)NC3(CCCCCC3)C2=O)c(C)c1,12.2%
7,CN(Cc1cnn(-c2ccccc2)c1)C(=O)C1CCC(=O)N(C2CC2)C1 (stereo not shown),4.92%
8,COc1cc2ccccc2cc1C(=O)Nc1ccc(Br)cn1,16.7%
9,Clc1cccc(/C=N/Nc2ncnc3ccccc23)c1,0.2%
10,CN(CC(=O)Nc1ccccc1Cl)CC(=O)Nc1ccccc1[N+](=O)[O-],-4.33%
11,CC(C1CC2CCC1C2)n1c(COc2ccccc2F)nnc1SCC(N)=O (stereo not shown),-1.9%
12,CC(=O)c1c(C)[nH]c2ccccc2c1=O,2.73%
13,CCCCNC(=O)c1ccc(S(=O)(=O)c2ccc(Cl)cc2)c(NC(C)=O)c1,1.98%
14,COc1ccc(CN2CCN(Cc3c[nH]c4ccccc34)CC2CCO)c(F)c1 (stereo not shown),-5.04%
15,COc1cc(C(=O)OCc2cc3ccccc3[nH]c2=O)cc(OC)c1OC,4.2%
16,CCCCOC(=O)Cn1c(=O)n(CC(=O)OCCCC)c2cc(C)ccc21,-19%
17,COC(=O)C(O)(c1ccc(NC(=O)c2cccs2)cc1)C(F)(F)F (stereo not shown),10.7%
18,O=C(NCCn1c(C(F)(F)F)nc2cc(C(F)(F)F)ccc21)[C@H]1CCCN1c1nc(CN2CCCCC2)cs1,7.28%
19,CCOC(=O)C1(CC2CC2)CCN(C(=O)c2cc(OC)nc3ccccc23)CC1,8.24%
20,CCOC(=O)c1sc(-c2cccc(C(F)(F)F)c2)nc1O,11.8%
21,COc1ccc(NC(=S)N2CCC(c3nc4ccc(Cl)cc4[nH]3)CC2)c(OC)c1,1.15%
22,O=C(O)c1cc(-c2ccc(O)cc2)on1,12.4%

row,Compound,"hERG current change (%, negative = inhibition) at 1uM"
1,CCOc1ccc(CCNC(=O)COC(=O)c2ccc(OC(C)C)cc2)cc1OCC,2.25%
2,CCOc1ccc(CCNC(=O)C2=C(C)C(=O)OC23CCC(C)CC3)cc1 (stereo not shown),0.27%
3,CCOc1ccc(C(O)C(CN2CCOCC2)c2ccccc2)cc1.Cl (stereo not shown),5.12%
4,CC(C)(C)c1ccc(C(=O)N2CCC(=O)N(C(CO)Cc3ccccc3)CC2)cc1 (stereo not shown),0.432%
5,C=C(C)C(=O)N1CC2(CC(c3cccc(NC(=O)/C(C)=C\C)c3)=NO2)C[C@H]1C(N)=O (stereo partly shown),9%
6,C/C=C(\C)C(=O)OC1c2c(ccc3ccc(=O)oc23)OC(C)(C)C1OC(C)=O (stereo not shown),-54.7%
7,C=CCc1c(OC)ccc2c1c(S(=O)(=O)c1ccc(C)cc1)cn2COC,14.6%
8,Cc1oc(-c2ccccc2F)nc1CS(=O)CC(=O)NCCN1CCCCC1C (stereo not shown),-1.26%
9,CC(CC(=O)Nc1ccc(S(=O)(=O)N2CCOCC2)cc1)c1ccccc1 (stereo not shown),5.36%
10,O=C(CN1CCOCC1)Nc1ccc(S(=O)(=O)NC2CCCCC2)cc1,-3.14%
11,COCCCn1[nH]c2c3c(ccc2c1=O)C(=O)c1ccccc1C3=O,14.5%
12,Cc1cc(C)nc(N2CCC(C(=O)NC3CC3)CC2)n1,5.42%
13,O=C(CN1CCC(NC(=O)Cc2ccccc2)CC1)Nc1cccc2ccccc12,-2.1%
14,Cc1ccc(-c2nnn(CC(=O)N(CC(=O)NC3CCCC3)c3cccc(F)c3)n2)o1,14.4%
15,CCOc1ccc(-n2c(SC(C)C)nc3c(c2=O)SCC3)cc1,13.4%
16,COc1ccc(N2CC(C(=O)Nc3ccc4c(c3)OCO4)CC2=O)cc1 (stereo not shown),9.14%
17,Cc1ccc(CN(Cc2cccnc2)C(=O)CN2C(=O)COc3ccccc32)o1,9.71%
18,CCOc1ccccc1C1C2=C(COC2=O)Nc2cc3c(cc21)OCO3 (stereo not shown),17.2%
19,CCOC(=O)C1CCN(Cc2cc(=O)n3c(-c4ccccc4)csc3n2)CC1,6.3%
20,CCOC(=O)C1=C(C)NC(=O)NC1c1ccc(N(CC)CC)cc1 (stereo not shown),-3.15%
21,c1ccc(CCc2nc(-c3cccnc3)no2)cc1,11.5%
22,Cc1nc2nc(SCC(=O)NCCCN3CCCC3)nn2c(C)c1Cc1ccccc1Cl,8.01%

row,Compound,"hERG current change (%, negative = inhibition) at 1uM"
1,CNC(=S)N(CCc1c(C)[nH]c2ccc(F)cc12)Cc1cccnc1,7.63%
2,Cc1ccc(N2C(=N)SCC2=O)cc1Cl,-4.51%
3,COC(=O)OCC12CCC(O1)C1(C)C(=O)OCC21 (stereo not shown),26.8%
4,Cc1nc2scc(C)n2c(=O)c1S(=O)(=O)NCc1ccc(F)cc1,17.3%
5,CC(=O)Nc1ccc(C(=O)CSc2nc3ccc(C)cc3[nH]2)cc1,3.94%
6,COC(=O)c1ccc(CSCC(=O)Nc2ccccc2)cc1,22.6%
7,Cc1ccc(Nc2nc3c([nH]2)c(=O)[nH]c(=O)n3C)cc1,8.49%
8,COc1ccc(C)cc1NS(=O)(=O)c1ccc(NS(=O)(=O)c2ccc(NC(C)=O)cc2)cc1,7.06%
9,Cc1cccc(C(=O)Oc2csc(=S)n2C(=O)c2cccc(C)c2)c1,2.37%
10,COc1ccc(CNC(=O)COc2cccnc2[N+](=O)[O-])cc1,10.3%
11,O=c1cc(CO)oc(CN2CCN(c3cccc(C(F)(F)F)c3)CC2)c1O,7.69%
12,COc1c(C)cc(Br)cc1C(=O)NC(=S)Nc1ccc(Cl)c(C(=O)O)c1,19.1%
13,O=C1CC(N2CCN(Cc3ccc4c(c3)OCO4)CC2)C(=O)N1CCc1ccccc1 (stereo not shown),0.601%
14,COc1ccccc1OCC(O)CN1CCN(CC(=O)Nc2c(C)cccc2C)CC1.Cl (stereo not shown),12.2%
15,Cn1c(SCC(=O)N2CCCC2)nc2ccccc21,-3.81%
16,Cc1ccc(OCCn2cncn2)c([N+](=O)[O-])c1,11.2%
17,O=Cc1cn(CC(=O)N2CCc3ccccc32)c2ccccc12,4.42%
18,CCN(CC)S(=O)(=O)c1ccc(O)c(C(=O)OCC(=O)N2CCCC2)c1,11.9%
19,Cl.O=C(O)c1ccc(-c2nc3ccccc3[nH]2)cc1,24.9%
20,COC(=O)N/N=C/c1cccs1,11.8%
21,CC1CCCN(CCCNC(=O)c2nn(C)c3c2CS(=O)(=O)c2ccccc2-3)C1 (stereo not shown),2.46%
22,COc1ccc(C(=O)OCc2c(C)noc2C)cc1,8.95%

row,Compound,"hERG current change (%, negative = inhibition) at 1uM"
1,O=C(Nc1nnc(C(F)(F)F)s1)c1ccc(Br)s1,3.86%
2,Cc1ccc2c(c1)Oc1ccc(NC(=O)CCCl)cc1C(=O)N2,3.94%
3,CC(C)N=c1scc(-c2cccs2)n1/N=C/c1ccc(O)c(O)c1O,7.43%
4,COc1ccc(C2CC(c3ccccc3)Nc3nc(N)nn32)cc1 (stereo not shown),6.98%
5,CCC(c1nnnn1Cc1cccs1)N1CCN(c2nc3ccccc3s2)CC1 (stereo not shown),-26.9%
6,COc1ccc(-c2cc(C(=O)N3CCN(Cc4ccccc4)CC3)no2)cc1OC,2.95%
7,CCOc1cc2[nH]c(=S)n(C3CCN(Cc4ccccc4)CC3)c(=O)c2cc1OCC,10.3%
8,COCC(=O)Nc1sc2c(c1C(=O)OC)CCC(C)C2 (stereo not shown),-3.89%
9,COc1ccc(-c2cn[nH]c2-c2ccc(OCC(=O)NN)cc2O)cc1OC,13.7%
10,CCS(=O)(=O)c1ccc2oc(SCC(=O)Nc3ccc(OC)c(OC)c3)nc2c1,8.58%
11,CCOc1ccc(N=C2C(=O)Nc3ccc(C)c(Br)c32)cc1,13.6%
12,Cc1cccc(C(=O)NC2C(=O)NNC2c2ccc(Cl)cc2)c1 (stereo not shown),4.47%
13,O=C(Nc1ccccc1N1CCOCC1)c1cc2ccccc2o1,24.5%
14,NS(=O)(=O)c1ccc(CNS(=O)(=O)c2cc(Cl)ccc2Cl)cc1,-0.878%
15,COc1ccc(C(=O)N2CC(=O)Nc3ccccc32)cc1S(=O)(=O)N1CCCC1,8.75%
16,O=[N+]([O-])c1cccc(NC(=S)N2CCCC2)c1,11.2%
17,COc1ccc(-n2nc([N+](=O)[O-])c(=NCCc3cccc(C)c3)n2O)cc1,8.36%
18,COc1cccc(C(=O)C2CCCN(C(=O)c3cccc(C#CC(C)(C)O)c3)C2)c1 (stereo not shown),5.38%
19,COc1cccc(-n2c(SCC(=O)NCC3CCCO3)nc3c([nH]c4ccccc43)c2=O)c1 (stereo not shown),-3.17%
20,Cc1ccc(C(=O)N2CCN(S(=O)(=O)c3ccccc3)CC2)cc1,12%
21,CCOC(=O)N1CCC(NCCNC(=O)c2ccc(Cl)cc2)CC1,-27.8%
22,CCN1CCc2c(sc(NC(=O)c3ccc(S(=O)(=O)N4CCCC4)cc3)c2C(=O)NC)C1,1.85%
